In publication PMC11995724, “Antibiotic target discovery by integrated phenotypic and activity-based profiling of electrophilic fragments” (Cell chemical biology, 2025):
In all, about 3,200 compounds went through this assay and about 75 (2%) showed an effect of 50% or more. The list shows a part of the results.

These compounds were tested on T1, S. aureus MSSA476. Conditions: relative growth, OD600, TSB; 25 µM; inhibitor.
T1 construct: MSSA476
Set-up: species or system S. aureus MSSA476 (TSB) or V. cholerae SAD30 (LB); 384-well bacterial growth screen at 25 uM, OD600 relative to DMSO control

SMILES | % of control remaining [%]
C=CC(=O)N1CCCC1c1c(C)nn(CC(C)C)c1Cl (stereo not drawn) [1-F19, 1-{2-[5-chloro-3-methyl-1-(2-methylpropyl)-1H-pyrazol-4-yl]pyrrolidin-1-yl}prop-2-en-1-one] | 109.714
CN(C)C(=O)C(CNC(=O)CCl)c1ccccc1 (stereo not drawn) [7-J12, 3-(2-chloroacetamido)-N,N-dimethyl-2-phenylpropanamide] | 108.948
CN(CC(=O)Nc1ccc(Cl)cc1)C(=O)CCl [4-D03, 2-chloro-N-{[(4-chlorophenyl)carbamoyl]methyl}-N-methylacetamide] | 80.0381
Cc1cc(CN(Cc2cnn(C)c2)C(=O)CCl)ccc1Cl [5-G12, 2-chloro-N-[(4-chloro-3-methylphenyl)methyl]-N-[(1-methyl-1H-pyrazol-4-yl)methyl]acetamide] | 116.211
O=C(CCl)NC(c1ccccc1)C1CCCC1 (stereo not drawn) [6-O18, 2-chloro-N-[cyclopentyl(phenyl)methyl]acetamide] | 82.9756
C=CC(=O)N1CCCC(S(C)(=O)=O)C1 (stereo not drawn) [1-J18, 1-(3-methanesulfonylpiperidin-1-yl)prop-2-en-1-one] | 119.209
O=C(CCl)Nc1ccc(S(=O)(=O)Nc2ccccc2)cc1 [5-K22, 2-chloro-N-[4-(phenylsulfamoyl)phenyl]acetamide] | 99.4536
O=C(CCl)N1N=C(c2cccs2)CC1c1cccs1 (stereo not drawn) [4-O18, 1-[3,5-bis(thiophen-2-yl)-4,5-dihydro-1H-pyrazol-1-yl]-2-chloroethan-1-one] | 105.193
C=CC(=O)NCCNC(=O)c1c(C)cc(C)nc1C [2-I12, N-{2-[(2,4,6-trimethylpyridin-3-yl)formamido]ethyl}prop-2-enamide] | 130.548
C=CC(=O)N1CCn2c(nnc2C2CCCC2)C1 [3-C09, 1-{3-cyclopentyl-5H,6H,7H,8H-[1,2,4]triazolo[4,3-a]pyrazin-7-yl}prop-2-en-1-one] | 108.663
C=CC(=O)N(Cc1cn(C)cn1)[C@H]1CCCc2ccc(C)cc21 [1-J11, N-[(1S)-7-methyl-1,2,3,4-tetrahydronaphthalen-1-yl]-N-[(1-methyl-1H-imidazol-4-yl)methyl]prop-2-enamide] | 110.769
CN(CC(=O)Nc1cccc(Cl)c1)C(=O)CCl [5-F18, 2-chloro-N-{[(3-chlorophenyl)carbamoyl]methyl}-N-methylacetamide] | 104.554
